pIC50: −log10 of the molar value. Lines with a small IC50 respond at low doses; where the fit passes the top or lowest dose, that dose stands as a limit. AUC is the area under the same curve over the 256-fold range up to the top dose, as a fraction; the more sensitive the line, the further below 1. Any top dose called inferred comes from the curve model; the source does not state it.
Legend:
Assay in all cases: Viability of human cancer cell lines after 72 h of drug (GDSC screen)
ACHP (KIN001-260) = compound: N#Cc1c(C2CCNCC2)cc(-c2c(O)cccc2OCC2CC2)nc1N [ACHP (KIN001-260)]; details: top dose 20 µM; top dose inferred
Method: (§1)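 Human cancer cell lines in 384-well plates, medium with 10% serum, drug for 72 h over a 256-fold dose range (nine 2-fold or five 4-fold steps up to the top dose). Adherent lines were fixed and stained with the nucleic acid dye Syto60, suspension lines read with resazurin; signal relative to control wells, capped at 0 and 100%. One two-parameter sigmoid per drug and line, fitted in a mixed model over all curves with the slope shared within a line.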

CH5424802 = compound: CCc1cc2c(cc1N1CCC(N3CCOCC3)CC1)C(C)(C)c1[nH]c3cc(C#N)ccc3c1C2=O [CH5424802]; details: top dose 5.12 µM; top dose inferred
Method: as §1

XMD8-92 = compound: CCOc1cc(N2CCC(O)CC2)ccc1Nc1ncc2c(n1)N(C)c1ccccc1C(=O)N2C [XMD8-92]; details: top dose 10 µM; top dose inferred
Method: as §1

CAY10603 = compound: CC(C)(C)OC(=O)Nc1ccc(-c2cc(C(=O)NCCCCCCC(=O)NO)no2)cc1 [CAY10603]; details: top dose 20 µM; top dose inferred
Method: as §1

VAL (B-cell lymphoma, suspension)
AUC (ACHP (KIN001-260)): 0.86
pIC50 (ACHP (KIN001-260)): 4.77
AUC (CH5424802): 0.967
pIC50 (CH5424802): < 5.29
AUC (XMD8-92): 0.911
pIC50 (XMD8-92): < 5.00
AUC (CAY10603): 0.184
pIC50 (CAY10603): 6.85

8-MG-BA (glioma, adherent)
AUC (ACHP (KIN001-260)): 0.972
pIC50 (ACHP (KIN001-260)): < 4.70
AUC (CH5424802): 0.966
pIC50 (CH5424802): < 5.29
AUC (XMD8-92): 0.845
pIC50 (XMD8-92): 5.18
AUC (CAY10603): 0.598
pIC50 (CAY10603): 5.64

DOK (head and neck, adherent)
AUC (ACHP (KIN001-260)): 0.968
pIC50 (ACHP (KIN001-260)): < 4.70
AUC (CH5424802): 0.968
pIC50 (CH5424802): < 5.29
AUC (XMD8-92): 0.843
pIC50 (XMD8-92): < 5.00
AUC (CAY10603): 0.631
pIC50 (CAY10603): 5.46

RERF-LC-Sq1 (lung squamous cell carcinoma, adherent)
AUC (ACHP (KIN001-260)): 0.975
pIC50 (ACHP (KIN001-260)): < 4.70
AUC (CH5424802): 0.96
pIC50 (CH5424802): < 5.29
AUC (XMD8-92): 0.934
pIC50 (XMD8-92): < 5.00
AUC (CAY10603): 0.682
pIC50 (CAY10603): 5.29

ALL-SIL (T-cell leukaemia, suspension)
AUC (ACHP (KIN001-260)): 0.796
pIC50 (ACHP (KIN001-260)): 5.10
AUC (CH5424802): 0.961
pIC50 (CH5424802): < 5.29
AUC (XMD8-92): 0.913
pIC50 (XMD8-92): < 5.00
AUC (CAY10603): 0.222
pIC50 (CAY10603): 6.65

SK-MG-1 (glioma, adherent)
AUC (ACHP (KIN001-260)): 0.88
pIC50 (ACHP (KIN001-260)): < 4.70
AUC (CH5424802): 0.964
pIC50 (CH5424802): < 5.29
AUC (XMD8-92): 0.881
pIC50 (XMD8-92): < 5.00
AUC (CAY10603): 0.522
pIC50 (CAY10603): 5.84

SNG-M (endometrium, adherent)
AUC (ACHP (KIN001-260)): 0.929
pIC50 (ACHP (KIN001-260)): < 4.70
AUC (CH5424802): 0.959
pIC50 (CH5424802): < 5.29
AUC (XMD8-92): 0.734
pIC50 (XMD8-92): 5.55
AUC (CAY10603): 0.936
pIC50 (CAY10603): < 4.70

NCI-H1623 (lung adenocarcinoma, adherent)
AUC (ACHP (KIN001-260)): 0.977
pIC50 (ACHP (KIN001-260)): < 4.70
AUC (CH5424802): 0.981
pIC50 (CH5424802): < 5.29
AUC (XMD8-92): 0.983
pIC50 (XMD8-92): < 5.00
AUC (CAY10603): 0.593
pIC50 (CAY10603): 5.62

ATN-1 (T-cell lymphoblastic leukaemia, suspension)
AUC (ACHP (KIN001-260)): 0.882
pIC50 (ACHP (KIN001-260)): 4.73
AUC (CH5424802): 0.837
pIC50 (CH5424802): 5.51
AUC (XMD8-92): 0.936
pIC50 (XMD8-92): < 5.00
AUC (CAY10603): 0.311
pIC50 (CAY10603): 6.42

IST-MEL1 (melanoma, adherent)
AUC (ACHP (KIN001-260)): 0.865
pIC50 (ACHP (KIN001-260)): < 4.70
AUC (CH5424802): 0.978
pIC50 (CH5424802): < 5.29
AUC (XMD8-92): 0.935
pIC50 (XMD8-92): < 5.00
AUC (CAY10603): 0.492
pIC50 (CAY10603): 5.93

WSU-DLCL2 (B-cell lymphoma, suspension)
AUC (ACHP (KIN001-260)): 0.979
pIC50 (ACHP (KIN001-260)): < 4.70
AUC (CH5424802): 0.99
pIC50 (CH5424802): < 5.29
AUC (XMD8-92): 0.992
pIC50 (XMD8-92): < 5.00
AUC (CAY10603): 0.933
pIC50 (CAY10603): < 4.70

KGN (ovary, adherent)
AUC (ACHP (KIN001-260)): 0.954
pIC50 (ACHP (KIN001-260)): < 4.70
AUC (CH5424802): 0.973
pIC50 (CH5424802): < 5.29
AUC (XMD8-92): 0.851
pIC50 (XMD8-92): < 5.00
AUC (CAY10603): 0.394
pIC50 (CAY10603): 6.22

A2780 (ovary, semi-adherent)
AUC (ACHP (KIN001-260)): 0.884
pIC50 (ACHP (KIN001-260)): < 4.70
AUC (CH5424802): 0.957
pIC50 (CH5424802): < 5.29
AUC (XMD8-92): 0.927
pIC50 (XMD8-92): < 5.00
AUC (CAY10603): 0.46
pIC50 (CAY10603): 6.02

BICR10 (head and neck, adherent)
AUC (ACHP (KIN001-260)): 0.985
pIC50 (ACHP (KIN001-260)): < 4.70
AUC (CH5424802): 0.982
pIC50 (CH5424802): < 5.29
AUC (XMD8-92): 0.905
pIC50 (XMD8-92): < 5.00
AUC (CAY10603): 0.797
pIC50 (CAY10603): 4.95

From the supplement of paper PMC4967469
